In the supplement of paper PMC7826260:
The other results are listed elsewhere or left out. Each Rep nickase domain was tested in vitro on the same pool of single strands (1 h at 37 °C, 3 µM enzyme); the outer parts of the 90-letter strands are left off. Numbers give uncut DNA relative to the enzyme-free pool, as log2; more negative means more cut, near 0 not cut, and no call is made. Shares of all reads are compared; uncut strands gain when others are lost, and binding without cutting may add a little.

System: T1, Rep nickase domain of tomato golden mosaic virus
T1 sequence (residues 1-124, tag not shown): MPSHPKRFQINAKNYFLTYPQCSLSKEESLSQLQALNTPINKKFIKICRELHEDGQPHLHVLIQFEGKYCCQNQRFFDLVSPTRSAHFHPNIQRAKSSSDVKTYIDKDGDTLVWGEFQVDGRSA
Experiment: uncleaved DNA left, log2 of reads against the no-enzyme library (log2 ratio); higher = less cleavage (more negative = more Rep cleavage of the k-mer); sequences stand for … in CTCGTCCG…ACCGGAGA
Method: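 A pool of 90-nt single-stranded DNAs with seven random bases just before the constant AC of the nick site (name = the seven bases) was cut by 3 µM recombinant His6-SUMO-tagged Rep nickase domain (300 nM DNA, 50 mM HEPES pH 8.0, 50 mM NaCl, 1 mM MnCl2, 1 h, 37 °C, three replicates). Uncut DNA was amplified and sequenced.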

Sequence | uncleaved DNA left (log2)
CGACCCA | 0.108
CTTAGGA | 0.296
TCGAGAT | -0.126
CACGGAT | -0.0199
ATGGTTC | -0.122
TAAGAGC | 0.0459
TGCATTA | 0.000804
TAGGTCC | 0.0845
GGCCCTC | -0.177
AAGCAGC | 0.0146
TGTACCT | -0.0918
AGACGTT | 0.0568
CGTTTCA | -0.00916
TTACCGG | 0.146
AACTAAC | -0.0751
CACAGAC | -0.0094
GTGCTAG | -0.0864
CGAGGCC | -0.00794
CCAAGGC | -0.0718
CAAGAAT | -0.0439

Sequence | uncleaved DNA left (log2)
CGAACGG | 0.117
TTACGCT | -0.173
GGAAACA | 0.0858
CATCCCT | 0.0283
CTTTCGC | -0.213
GTCCGCG | 0.0482
TTCATAT | 0.0726
ACTAGTG | -0.089
TTGAGAG | 0.0908
ACTGTCA | 0.0367
TGCCATT | -0.0743
GAAAATA | 0.0657
AGTTAGA | 0.0262
CGGGTTC | -0.0115
CTAACCC | -0.171
TTAATGC | -0.0835
AACAACC | -0.0127
ATCCCTG | -0.0913
GAAGTAA | 0.127
ACCGCAC | -0.039
